Reference: PubChem BioAssay AID1645887 (National Center for Advancing Translational Sciences (NCATS), 2021)
Values joined by “and” are separate entries in the source; they are usually repeats but may differ in a detail not shown here. Equal values may be shown once. Among all 16,000 compounds or so, about 40 (0.2%) were called active. Inconclusive results (about 1%) are left out. The call rests on the fitted dose curve; in most records, active means well fitted activation curve with a large enough effect; inconclusive means small, poorly fitted or top-dose-only effect, or another doubt; inactive means no such curve, though single readings can be large or run the other way. The list shows a part of the results.

Target: Rap guanine nucleotide exchange factor 4 (Homo sapiens) (UniProt Q8WZA2)
Assay: Validation qHTS for agonist of cAMP-regulated guanine nucleotide exchange factor 4 (EPAC2);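 further: exchange makes BODIPY-GDP fluorescence drop when released from Rap1B; series mostly up to about 150 µM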
Settings: EPAC2 Rap1B BODIPY-GDP exchange, fluorescence; activation: hits give high values
Method in brief: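 Signal normalized against 6.5 mM cAMP as agonist control. Mix of EPAC2 (100 nM), RAP1B-BODIPY-GDP (250 nM) and GDP (50 uM) was read kinetically at 480/540 nm, every 5 min over 30 min, after 5 min room-temperature incubation with compound.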
On the % scale 0 is the no-effect control and ±100 the full control effect.

UniProt Q8WZA2, sequence (Q8WZA2 whole entry, looked up): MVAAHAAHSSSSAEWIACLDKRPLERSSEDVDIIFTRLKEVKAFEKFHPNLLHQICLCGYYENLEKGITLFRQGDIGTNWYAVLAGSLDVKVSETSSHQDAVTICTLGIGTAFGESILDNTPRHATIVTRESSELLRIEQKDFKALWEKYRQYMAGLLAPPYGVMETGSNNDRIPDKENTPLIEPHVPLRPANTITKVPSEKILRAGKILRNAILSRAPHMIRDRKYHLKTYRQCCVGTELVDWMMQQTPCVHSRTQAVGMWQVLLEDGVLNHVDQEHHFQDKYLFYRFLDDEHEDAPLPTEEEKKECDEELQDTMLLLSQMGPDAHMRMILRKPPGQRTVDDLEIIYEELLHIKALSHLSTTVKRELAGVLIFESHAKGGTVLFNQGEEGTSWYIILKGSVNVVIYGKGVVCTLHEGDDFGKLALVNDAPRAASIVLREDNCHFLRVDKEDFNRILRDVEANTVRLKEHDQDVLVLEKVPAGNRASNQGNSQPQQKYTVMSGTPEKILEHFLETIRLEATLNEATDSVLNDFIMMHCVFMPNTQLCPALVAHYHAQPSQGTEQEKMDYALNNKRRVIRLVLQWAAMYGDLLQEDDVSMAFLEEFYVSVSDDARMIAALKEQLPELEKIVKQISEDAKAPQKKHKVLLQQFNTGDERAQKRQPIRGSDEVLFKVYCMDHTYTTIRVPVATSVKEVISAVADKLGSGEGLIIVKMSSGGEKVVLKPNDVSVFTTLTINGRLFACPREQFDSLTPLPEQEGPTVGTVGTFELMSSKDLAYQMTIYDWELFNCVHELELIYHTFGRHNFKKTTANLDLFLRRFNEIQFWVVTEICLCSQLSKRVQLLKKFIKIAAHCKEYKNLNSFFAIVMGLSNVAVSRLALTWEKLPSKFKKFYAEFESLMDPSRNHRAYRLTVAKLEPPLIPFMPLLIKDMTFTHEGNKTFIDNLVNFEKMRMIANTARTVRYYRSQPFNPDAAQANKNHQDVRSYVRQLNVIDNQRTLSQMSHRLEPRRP

activation, inactive:
N#Cc1cccc(NC(=O)N2CCCC3(CCN(C(=O)c4cccc(F)c4)CC3)C2)c1 -11.3%
CN(Cc1ccco1)c1ncncc1-c1cccc(NS(C)(=O)=O)c1 3.47%
COc1ccc2nc(S(=O)Cc3ncc(C)c(OC)c3C)[nH]c2c1 (centres undefined) 0.367%
Cc1nc2c(O)cccc2c(=O)[nH]1 1.07%
CC1(C)[C@H](O[C@H]2O[C@H](C(=O)O)[C@@H](O)[C@H](O)[C@H]2O[C@@H]2O[C@H](C(=O)O)[C@@H](O)[C@H](O)[C@H]2O)CC[C@@]2(C)[C@H]1CC[C@]1(C)[C@H]2C(=O)C=C2[C@H]3C[C@@](C)(C(=O)O)CC[C@]3(C)CC[C@]21C 0.629%
C[C@@H](N)CCCP(=O)(O)O -1.34%
CN(C)Cc1ccccc1-c1ccc2ncnc(N(C)Cc3ccco3)c2c1 -9.35%
COc1ccc(CNc2ncnc3ccc(-c4ccc5c(c4)OCO5)cc23)c(OC)c1 -3.39%
CC(C)[C@@H]1CC[C@@H](C)CC1=O -20.2%
CCOC(=O)/C=C/c1ccc2oc3ccccc3c(=O)c2c1 -29.5%
CC(C)C1COc2cc3oc(=O)ccc3cc2O1 (centres undefined) -29.7%
COc1ccc(C(=O)N2CCC3(CCCN(C(=O)NC(C)C)C3)CC2)cc1 -7%
CN(C)c1ncc2nc(CCc3ccccc3)c(=O)n(Cc3ccc(F)cc3)c2n1 -7.94%
O=C(Cn1cncn1)N1CCOc2ccc(CN3CCN(c4ccccc4)CC3)cc2C1 -4.09%
Cc1cnc(CNc2ncncc2-c2ccccc2CN(C)C)cn1 -5.17%
NC(CSCC(=O)O)C(=O)O (centres undefined) -2.18%
O=C(Nc1ccc(/C=C/c2ccc(NC(=O)c3cc(S(=O)(=O)O)c4cccnc4c3O)cc2S(=O)(=O)O)c(S(=O)(=O)O)c1)c1cc(S(=O)(=O)O)c2cccnc2c1O -38.7%
COc1ccc2[nH]cc(CCNc3ncncc3-c3cccc(NS(C)(=O)=O)c3)c2c1 6.24%
COc1cccc(Nc2ncc3nc(CCc4ccccc4)c(=O)n(CCC#N)c3n2)c1 5.96%
N=C(CC(O)COc1ccccc1-c1ccccc1)N1CCCCC1 (centres undefined) -5.25%
Cc1cccnc1-c1cccc2c1OC(CNC(=O)/C=C/c1cccs1)C2 (centres undefined) 6.73%
CN(C)c1ncc2ncc(=O)n(CCc3ccccc3)c2n1 -16.3%
COc1ccc(CNc2nc(-c3ccccc3OC)nc3ccccc23)c(OC)c1 3.13%
CC1(C)Oc2ccc(C#N)cc2[C@@H](OC2=CC(=O)CC2)[C@@H]1O 0.361% and -1.29%
Cc1ncc2c(c1CNS(=O)(=O)N(C)C)CCN(C(=O)c1[nH]c3ccc(Cl)cc3c1C)C2 8.96%
CC1=CC2C(CC1=O)C(C)=CCC2C(C)C (centres undefined) -21.5%
Cc1csc[n+]1CC(=O)c1ccc(I)cc1 -3.87%
CCNC(=O)[C@@H]1CCCN1C(=O)[C@H](CCCN=C(N)N)NC(=O)[C@H](CC(C)C)NC(=O)[C@@H](Cc1c[nH]c2ccccc12)NC(=O)[C@H](Cc1ccc(O)cc1)NC(=O)[C@H](CO)NC(=O)[C@H](Cc1c[nH]c2ccccc12)NC(=O)[C@H](Cc1cnc[nH]1)NC(=O)[C@@H]1CCC(=O)N1 -4.82%
NCCCCN -7.16% and -19.4%
COC(=O)c1ccc(C(=O)N2CCc3c(C(=O)NC(C)c4ccco4)c(OC)cc(=O)n3CC2)cc1 (centres undefined) -5.31%
CN(Cc1ccc(C(C)(C)C)cc1)Cc1cccc2ccccc12 20.1% and -3.64%
COc1ccc(CNc2cc(-c3ccoc3)ncn2)c(OC)c1 -10.9%
COc1cc2c(cc1OC)[C@@H]1C(=O)c3ccc4c(c3O[C@@H]1CO2)C=CC(C)(C)O4 -12%
C(=C\c1c[nH]c2ccccc12)/c1cc[n+](C2CCCCC2)cc1 0.606%
CCOC(=O)c1ccc(N(C(=O)c2ccccc2)c2ccccc2)cc1 -10.4%
CCCCCN=c1ccn(Cc2ccccc2)c2ccccc12 2.77%
COc1ccc(CN2[C@@H](CC(=O)O)c3ccc(C(F)(F)F)cc3S2(=O)=O)cc1 -7.78%
CC(O)[C@@H]1NC(=O)[C@H](Cc2ccccc2)NC(=O)[C@H](C(C)O)NC(=O)[C@H](CCCCN)NC(=O)[C@H](Cc2c[nH]c3ccccc23)NC(=O)[C@H](Cc2ccccc2)NC(=O)[C@H](Cc2ccccc2)NC(=O)[C@H](CC(N)=O)NC(=O)[C@H](CCCCN)NC(=O)[C@@H](NC(=O)CNC(=O)[C@H](C)N)CSSC[C@@H](C(=O)O)NC(=O)[C@H](CO)NC1=O (some centres undefined) -0.92%
CCCCCCCCNC(C)C(O)c1ccc(SC(C)C)cc1 (centres undefined) -9.26%
O=C(c1ccncc1)N1CCC2(CCCN(c3ccncc3)C2)CC1 -8.96%
CC(=O)CC(c1ccc([N+](=O)[O-])cc1)c1c(O)c2ccccc2oc1=O (centres undefined) -14.7%
O=C(O)c1cc([N+](=O)[O-])ccc1NCCCc1ccccc1 -25% and -0.259% and -34.1%
O=C(O)c1cc(NCc2cc(O)ccc2O)ccc1O -2.79%
COc1ccccc1-c1cc(NCc2ccccc2)ncn1 -14%
CC(C)(O)C#Cc1ccc(C(=O)NCCN2Cc3ccccc3OC(c3ccccc3F)C2)o1 (centres undefined) 2.11%
CN(C)c1ncc2nc(-c3cccs3)c(=O)n(Cc3cccs3)c2n1 10%
CCN(Cc1ccncc1)C(=O)[C@@H](CO)c1ccccc1 -4.33%
CCN(CC)CCOC(=O)c1cccnc1 -17.7%
CCC1(O)CC2CN(CCc3c([nH]c4ccccc34)[C@@](C(=O)OC)(c3cc4c(cc3OC)N(C=O)C3[C@]45CCN4CC=C[C@@](CC)([C@@H](OC(C)=O)[C@]3(O)C(=O)OC)[C@H]45)C2)C1 (some centres undefined) -3.06%
